SMILES strings stand for the structures. Hit rate of the full screen: of about 310,000 compounds, about 14,000 (4.5%) showed an effect of 50% or more. Effects have a minus sign here. Some of the results follow.
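Note: peak tail current of the secondary pulse compared with the same well before compound.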

This test deals with human ether-à-go-go-related gene (hERG) potassium channel (human, UniProt Q12809). Description: primary screen, population patch clamp on CHO cells stably expressing hERG.
Sequence of human ether-à-go-go-related gene (hERG) potassium channel (Q12809 whole entry, looked up): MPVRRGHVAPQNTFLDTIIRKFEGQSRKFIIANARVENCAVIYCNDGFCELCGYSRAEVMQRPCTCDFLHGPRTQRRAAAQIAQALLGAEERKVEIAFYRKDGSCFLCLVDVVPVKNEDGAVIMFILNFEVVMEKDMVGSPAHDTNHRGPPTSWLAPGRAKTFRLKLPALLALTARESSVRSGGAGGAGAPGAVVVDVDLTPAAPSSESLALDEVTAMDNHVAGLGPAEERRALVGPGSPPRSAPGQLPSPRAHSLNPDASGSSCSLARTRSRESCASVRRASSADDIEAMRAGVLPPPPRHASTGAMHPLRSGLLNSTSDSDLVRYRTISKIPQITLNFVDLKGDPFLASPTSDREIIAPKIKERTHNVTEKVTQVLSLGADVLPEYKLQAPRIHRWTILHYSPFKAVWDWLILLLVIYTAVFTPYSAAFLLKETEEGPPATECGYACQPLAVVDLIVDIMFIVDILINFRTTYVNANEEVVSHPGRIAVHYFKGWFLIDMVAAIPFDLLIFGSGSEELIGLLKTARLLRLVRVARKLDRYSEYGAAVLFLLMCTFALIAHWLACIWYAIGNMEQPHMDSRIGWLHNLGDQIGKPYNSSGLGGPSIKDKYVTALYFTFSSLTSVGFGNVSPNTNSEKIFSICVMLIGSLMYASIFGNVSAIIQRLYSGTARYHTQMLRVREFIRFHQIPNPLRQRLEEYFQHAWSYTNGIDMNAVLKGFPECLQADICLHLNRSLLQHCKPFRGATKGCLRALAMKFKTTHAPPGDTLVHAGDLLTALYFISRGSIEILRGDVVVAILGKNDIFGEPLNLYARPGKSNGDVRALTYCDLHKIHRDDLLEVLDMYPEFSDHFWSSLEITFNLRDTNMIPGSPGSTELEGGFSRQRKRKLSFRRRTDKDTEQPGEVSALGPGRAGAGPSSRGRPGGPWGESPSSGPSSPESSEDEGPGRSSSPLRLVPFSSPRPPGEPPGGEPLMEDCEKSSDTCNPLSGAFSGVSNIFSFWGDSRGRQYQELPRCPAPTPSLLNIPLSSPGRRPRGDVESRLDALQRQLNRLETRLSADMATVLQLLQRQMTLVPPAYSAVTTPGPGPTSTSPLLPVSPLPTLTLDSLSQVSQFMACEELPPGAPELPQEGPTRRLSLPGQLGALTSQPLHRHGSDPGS
`CCCCCCCC(=O)Nc1ccc(S(=O)(=O)Nc2nccs2)cc1`: the “hERG current change (%, negative = inhibition) at 10uM” value is recorded as 4.7%. Next, `O=C(NC1CCSC1=O)c1cccc(Cl)c1` (centres unmarked): 0.94%; `CN(c1ccccc1)S(=O)(=O)c1cccc(C(=O)OCC(=O)NCCCN2CCCC2=O)c1`: -16.9%; `Cc1ccc(-c2nc(-c3ccccn3)sc2CC(=O)O)cc1`: 2.76%. Next, `CCOc1ccc(NC(=S)NC(=O)/C=C/c2ccco2)cc1`: 6.61%; `COc1cc(Br)c(CC(=O)NC2CC2)cc1OC`: 17.8%; `Cn1c(CCN2CCOCC2)nc2cc(NC(=O)COc3ccc(Cl)cc3)ccc21`: -55.4%.

For `CC(C)NC(=O)c1ccc2c3n(nc2c1)-c1ccccc1CO3`, the “hERG current change (%, negative = inhibition) at 10uM” value is listed as -13%. For `Cc1ccc(Oc2ncc(CN3CCOCC3)s2)cc1`, the “hERG current change (%, negative = inhibition) at 10uM” value came to 3.3%. On to `COc1ccccc1/C=C/C=N/n1c(C2CCCCC2)n[nH]c1=S`, for which the “hERG current change (%, negative = inhibition) at 10uM” value is 16.2%. For `O=C(c1ccc(F)cc1F)N1CCCc2ccccc21`, the “hERG current change (%, negative = inhibition) at 10uM” value is listed as -9.83%. Next, `CCOCC(=O)Nc1ccc(S(=O)(=O)N2CCC(c3nc4ccccc4[nH]3)CC2)cc1`: -14.8%; `CN(C(=O)CSc1nnc(-c2ccccc2)n1C)C1CCS(=O)(=O)C1` (centres unmarked): 4.31%; `COc1cc(CCC(=O)Nc2ccncc2Cl)cc(OC)c1OC`: -0.962%. Next, `CN1CCN(C(=O)c2ccc(COc3ccc(Cl)cc3Cl)cc2)CC1`: -20.9%; `CC(=O)Nc1ccc(Nc2nnc(-c3ccc(C)c(S(=O)(=O)NCC4CCCO4)c3)c3ccccc23)cc1` (centres unmarked): -5.1%. Next, `Cc1ccc(C)n1C(CC(=O)O)c1ccc(C#N)cc1` (centres unmarked): 18.3%. On to `CN(C)C(CNS(=O)(=O)c1ccc(F)cc1)c1cccnc1` (centres unmarked), for which the “hERG current change (%, negative = inhibition) at 10uM” value is 29.5%. Then `COCCn1c(SCC(=O)Nc2ccc(OC)cc2OC)nc2ccccc2c1=O`, with 10.5%; and `CCc1nnc(NS(=O)(=O)c2ccc(NC(=S)NC(=O)c3ccc(F)cc3)cc2)s1`, with -13.2%. In the case of `CCOC(=O)C1C(=O)C=C(c2ccc(C)cc2)CC1c1cccc([N+](=O)[O-])c1` (centres unmarked), the “hERG current change (%, negative = inhibition) at 10uM” value was -4.88%. Next, `CO/N=C1\CCCc2c(C(=O)NN)sc(SC)c21`: 6.7%; `CC(=O)N=c1c(C#N)cc2c(=O)n3cccc(C)c3nc2n1Cc1ccco1`: -35.3%.

On to `O=C(NNc1c(F)c(F)cc(F)c1F)c1cc2ccccc2oc1=O`, for which the “hERG current change (%, negative = inhibition) at 10uM” value is on record as 9.99%.

On to `O=C(CC1S/C(=N/N=C/C=C/c2ccccc2)NC1=O)Nc1ccc(Cl)c(Cl)c1` (centres unmarked), for which the “hERG current change (%, negative = inhibition) at 10uM” value worked out at 11.9%. Then `CC(=O)Nc1ccc(NC(=O)CSc2nc(N)c(NC(=O)c3ccccc3F)c(=O)[nH]2)cc1`, with 7.35%. Take `Cc1ccc(S(=O)(=O)N2CCOCC2)cc1NC(=O)CSc1nc2ccccc2c(=O)n1Cc1ccccc1`: the “hERG current change (%, negative = inhibition) at 10uM” value is on record as -46.1%.

On to `Cn1c(-c2ccccc2)c[n+]2c1CCCCC2.[Br-]`, for which the “hERG current change (%, negative = inhibition) at 10uM” value is given as -0.399%. With `CCCCn1c(CCNC(=O)c2cccs2)nc2ccccc21`, the “hERG current change (%, negative = inhibition) at 10uM” value is listed as -33.2%. Then `CC(=O)NC1=NN(C(C)=O)C2(S1)C(=O)N(C(C)C)c1ccc(C)cc12` (centres unmarked), with 3.66%; and `Cc1ccc(C(=O)N2C3=C(CCCC3)C(=O)NC23CCCCC3)cc1`, with 33%; and `CN(CCCC(=O)N1CCCC(C(N)=O)C1)S(=O)(=O)c1ccc(F)cc1` (centres unmarked), with -0.711%.

Consider `CN1Cc2c(N3CCOCC3)nc3sc(C(=O)c4ccccc4)c(N)c3c2CC1(C)C`, for which the “hERG current change (%, negative = inhibition) at 10uM” value stood at 11.2%. Then `Cc1ccsc1C(=O)C1CCCN(Cc2cnc(N)nc2)C1` (centres unmarked), with -4.85%; and `CC(=O)c1ccc(S(=O)(=O)N2CCN(C(=O)CSc3ccc(C)c(C)c3)CC2)cc1`, with -16.1%; and `CCCNC(=O)CSc1nc2ccc(OCC)cc2s1`, with 7.92%. On to `CCOC(=O)c1cc(-c2ccccc2)n(CC(=O)Nc2ccc(OC)cc2)c1C`, for which the “hERG current change (%, negative = inhibition) at 10uM” value is 6.19%. As for `CCN1C(C(=O)Nc2cc(C)on2)=C(O)c2ccccc2S1(=O)=O`, the “hERG current change (%, negative = inhibition) at 10uM” value came to 24.7%. Then `Cc1ccc(CC2CC(=O)N(c3cc(Cl)ccn3)C2=O)cc1` (centres unmarked), with -0.469%; and `COc1cccc(OC)c1C(=O)N1CCN(Cc2cccnc2)CC1`, with 27.2%; and `Cc1ccc(NC(=O)CN(C)C(=O)c2cc(S(=O)(=O)N(C)C)ccc2N2CCCC2)cc1`, with 3.15%. Then `C/C(=N\NC(=O)COc1cccc(Cl)c1)c1ccc2c(c1)OCCO2`, with 6.72%; and `COc1ccc(-c2nc3ccccc3nc2-c2ccccc2)cc1OC`, with -4.02%. Next, `CCOC(=O)c1nc(C)n(-c2ccc([N+](=O)[O-])cc2)n1`: -17.5%; `O=C(OCc1cccc(Cl)c1)c1cc(S(=O)(=O)N2CCCCC2)ccc1N1CCOCC1`: 1.09%; `COc1cccc(CNc2nc(C(F)(F)F)nc3ccccc23)c1`: 0.0262%. Turning to `CCc1ccccc1NC(=O)C1CCN(S(=O)(=O)c2ccc3c(c2)N(C(C)=O)CCO3)CC1`, the “hERG current change (%, negative = inhibition) at 10uM” value was 17.2%. `C1CCc2c(nnc3c2-c2nonc2CC3)C1`: the “hERG current change (%, negative = inhibition) at 10uM” value was 0.993%.

Turning to `O=[N+]([O-])c1cccc(CCl)c1`, the “hERG current change (%, negative = inhibition) at 10uM” value was -0.214%. Next, `CN(CCOc1ccc(Br)cc1)CC(O)c1ccccc1.O=C(O)C(=O)O` (centres unmarked): -63.1%; `CCn1c(SCC(=O)Nc2ccc(C(=O)OC)cc2)nnc1-c1cccs1`: -10.7%. In the case of `O=C(O)c1ccccc1-c1ccccc1C(=O)NCc1cccnc1`, the “hERG current change (%, negative = inhibition) at 10uM” value came out at 20.2%.

For the compound `CCn1c(=O)c(C(=O)CN(C)Cc2ccc(F)cc2)c(N)n(Cc2ccccc2)c1=O`, the “hERG current change (%, negative = inhibition) at 10uM” value is reported as -71%. Next, `O=C(Cn1c(=O)c2c(ncn2C2CCCC2)n(Cc2ccccc2)c1=O)N1CCc2ccccc21`: 16.8%; `CCN(CC(=O)Nc1cc(Cl)ccc1OC)CC(=O)NC1CCS(=O)(=O)C1.O=C(O)C(=O)O` (centres unmarked): -3.74%; `Cc1cccc(C2C3=C(CCCC3=O)N=C3c4ccccc4C(=O)C32)c1` (centres unmarked): -0.327%. Then `CCc1ccc(NC(=O)COc2ccc3c(c2)OCO3)cc1`, with -1.69%; and `COCc1cc(=O)[nH]c(/N=C(\N)Nc2ccc(C)cc2)n1`, with -17.6%; and `CC(=O)N1c2ccc(S(=O)(=O)NCCC(=O)Nc3ccccc3C)cc2CC1C` (centres unmarked), with 5.38%. Then `CN(C)C1=NCCN1CCc1ccccc1`, with 12%; and `Nc1nn(-c2ccccc2)nc1C(=O)OCc1ccccc1`, with 14.9%; and `O=C(CCCn1c(=S)[nH]c2cc3c(cc2c1=O)OCO3)NCc1cccc(Cl)c1`, with 22.4%. In the case of `Cc1cc(C(F)F)n2nc(C(=O)Nc3sc4c(c3C#N)CCC(C)C4)nc2n1` (centres unmarked), the “hERG current change (%, negative = inhibition) at 10uM” value is -5.85%.

With `COC(=O)c1ccccc1NC(=O)/C=N/O`, the “hERG current change (%, negative = inhibition) at 10uM” value is on record as -31.5%.

`N#Cc1nc(-c2ccc(OCc3ccc(Cl)cc3)cc2)oc1NCc1cccnc1`: the “hERG current change (%, negative = inhibition) at 10uM” value is 19.9%. Next, `COc1ccc(NC(=S)N2CCNC(=O)C2CC(=O)Nc2cccc(Cl)c2C)cc1` (centres unmarked): -20.2%; `Cc1cc(C)n(-c2nc(O)cc(=O)[nH]2)n1`: 5.04%; `COc1cc(CN2CCN(c3cc(C)ccc3C)CC2)cc([N+](=O)[O-])c1O`: 7.26%. Then `CCOc1ccc(NC(=S)N2CCC(c3ccc(C)cc3)C2)cc1` (centres unmarked), with -6.63%; and `CN(CC(=O)Nn1cnnc1)S(=O)(=O)c1cc(Cl)ccc1Cl`, with 4.75%; and `Cc1nnc(SCc2cccc3ccccc23)n(N)c1=O`, with 3.09%.

As to `COc1ccccc1NC(=S)N1CCN(c2ncccn2)CC1`, the “hERG current change (%, negative = inhibition) at 10uM” value is 31.9%. Then `CC#CC(=O)N1CCC(CCC(=O)N(C)Cc2ccccc2)CC1`, with -7.72%; and `CN(C)c1ccc(C(=O)c2ccc(O)cc2O)cc1`, with -30.8%; and `COC(=O)NNC(=O)COc1ccc(Br)c(C)c1`, with -44.7%. Next, `c1ccc(-c2nnc(C3CC(c4ccncc4)=NO3)o2)cc1` (centres unmarked): 4.02%. Next, `O=C(NCc1ccco1)C1CC(c2ccc(F)cc2)=NO1` (centres unmarked): 8.73%; `Cc1ccc2c(c1)N(CCC(=O)N1CCC3(CC1)OCCO3)C(=O)CO2`: -16.8%. For `COc1ccc(NC(=O)CN(C)C(=O)c2cc(-c3ccc(OC)cc3)nc3ccccc23)cc1`, the “hERG current change (%, negative = inhibition) at 10uM” value was -2.52%. Then `COc1ccc(OC)c(NC(=O)CCCN2C(=S)NC(C)(C)CC2C)c1` (centres unmarked), with 0.663%; and `CCc1cc(=O)[nH]c(SCC(=O)NCc2ccc3c(c2)OCO3)n1`, with 5.02%; and `O=C(NCCc1ccccc1)C(=O)c1cn(CC(=O)N2CCCC2)c2ccccc12`, with 10.6%.

Take `CCN(CC(=O)Nc1ccccc1C(F)(F)F)C(=O)Cc1ccccc1`: the “hERG current change (%, negative = inhibition) at 10uM” value stood at 7.39%. Next, `CCOCC(=O)Nc1cc([N+](=O)[O-])ccc1C`: -2.36%. In the case of `N#C/C=C/N1CCC(Cc2ccccc2)CC1`, the “hERG current change (%, negative = inhibition) at 10uM” value is listed as -45.3%.

Take `OCCC1CN(Cc2ccc3cccc(F)c3n2)CCN1Cc1ccccc1` (centres unmarked): the “hERG current change (%, negative = inhibition) at 10uM” value is given as -15.6%. Then `CCn1c(SCC(=O)Nc2ccccc2C(=O)OC)nnc1-c1ccc(N)cc1`, with -36.4%; and `Cc1nnc2n1-c1ccc(Br)cc1C(c1ccccc1Cl)=NC2`, with -21.1%; and `Cc1ccc(C)c(C(=O)CSc2n[nH]c(-c3ccncc3)n2)c1`, with -0.0279%.

These data come from article PMC4336329 (PLoS ONE, 2015).
